Measured values reported in US20230312684A1 (PINETREE THERAPEUTICS, published 2023).

Target: T1, VEGF165 (UniProt P15692 27-191)
T1 sequence: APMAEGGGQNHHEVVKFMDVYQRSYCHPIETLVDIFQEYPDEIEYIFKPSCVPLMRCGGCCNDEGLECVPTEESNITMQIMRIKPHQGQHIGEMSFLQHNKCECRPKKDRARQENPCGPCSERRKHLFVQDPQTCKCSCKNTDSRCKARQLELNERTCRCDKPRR

B1: SEQ ID NO: 122, b1b2-Fc (NRP1, WT, single b1b2) (Fc fusion)
chain: EDFKCMEALGMESGEIHSDQITASSQYSTNWSAERSRLNYPENGWTPGEDSYREWIQVDLGLLRFVTAVGTQGAISKETKKKYYVKTYKIDVSSNGEDWITIKEGNKPVLFQGNTNPTDVVVAVFPKPLITRFVRIKPATWETGISMRFEVYGCKITDYPCSGMLGMVSGLISDSQITSSNQGDRNWMPENIRLVTSRSGWALPPAPHSYINEWLQIDLGEEKIVRGIIIQGGKHRENKVFMRKFKIGYSNNGSDWKMIMDDSKRKAKSFEGNNNYDTPELRTFPALSTRFIRIYPERATHGGLGLRMELLGCGGGGSGGGGS[human IgG1 Fc left out]
- Kd: 0.63 nM

B2: SEQ ID NO: 154, b1b2-Fc (NRP2, WT, single b1b2) (Fc fusion)
chain: ENFQCNVPLGMESGRIANEQISASSTYSDGRWTPQQSRLHGDDNGWTPNLDSNKEYLQVDLRFLTMLTAIATQGAISRETQNGYYVKSYKLEVSTNGEDWMVYRHGKNHKVFQANNDATEVVLNKLHAPLLTRFVRIRPQTWHSGIALRLELFGCRVTDAPCSNMLGMLSGLIADSQISASSTQEYLWSPSAARLVSSRSGWFPRIPQAQPGEEWLQVDLGTPKTVKGVIIQGARGGDSITAVEARAFVRKFKVSYSLNGKDWEYIQDPRTQQPKLFEGNMHYDTPDIRRFDPIPAQYVRVYPERWSPAGIGMRLEVLGCGGGGSGGGGS[human IgG1 Fc left out]
- Kd: 3 nM
